Article PMC10668032
The list shows a part of the results. At the low end of the ranking the order means little.

Biological target: SIX1 homeodomain (reference allele) (UniProt Q15475)
Experiment: universal protein binding microarray
Details: Universal all-10-mer PBM (8x60K, AMADID 030236), 300 nM GST-tagged protein, Alexa Fluor 488 anti-GST; buffer, salt, pH and temperature not stated; high values mean tight binding; most listed sequences are background and not binding sites; double strand, one strand shown

Row | Sequence | binding signal
1 | ATGAGTTG | -0.16 E-score
2 | GATCCTGC | 0.353 E-score
3 | GGTTCTTA | -0.0137 E-score
4 | ACACGACA | 0.0657 E-score
5 | CCACCGGA | 0.109 E-score
6 | CGCGCGCA | -0.0647 E-score
7 | CGAGCAGA | -0.175 E-score
8 | GAGCTCAC | 0.0227 E-score
9 | TATTTCGA | 0.129 E-score
10 | CCTCGACG | -0.0194 E-score
11 | GTCAGCAC | -0.211 E-score
12 | AGCGATGG | 0.0163 E-score
13 | ACTAGCTG | -0.0085 E-score
14 | AATTCTAG | -0.0361 E-score
15 | CAAAGCAC | -0.12 E-score
16 | ACAGTTAA | -0.137 E-score
17 | GCCGTCCA | -0.0993 E-score
18 | TGCTCCAA | -0.133 E-score
19 | GCATCTCA | 0.186 E-score
20 | AGTCGATC | 0.234 E-score
21 | AAGATGAG | -0.0829 E-score
22 | CAACTCCA | -0.117 E-score
23 | ACCAATGG | 0.046 E-score
24 | ACTTCAAC | -0.0833 E-score
25 | GATCTGGA | 0.274 E-score

Row | Sequence | binding signal
26 | AGCCTACC | -0.00394 E-score
27 | AGAATAAT | 0.0944 E-score
28 | GTGCATCA | -0.114 E-score
29 | CCGCACAC | -0.0101 E-score
30 | ACTATTAC | 0.0512 E-score
31 | GCTATCCA | 0.204 E-score
32 | AAACTGTG | -0.0816 E-score
33 | CACCGTCA | -0.106 E-score
34 | ATCTTAAC | 0.0596 E-score
35 | ATCCCTCA | 0.312 E-score
36 | AGCACTGG | 0.164 E-score
37 | CCCTGCAC | -0.0879 E-score
38 | AGCGCGGG | 0.108 E-score
39 | CGGCCATC | -0.127 E-score
40 | AAATTCAC | -0.268 E-score
41 | GTAATATA | 0.226 E-score
42 | GCTAGAAC | -0.155 E-score
43 | CCGGATCG | 0.417 E-score
44 | AGGCGACA | -0.0203 E-score
45 | GGAACATA | -0.0283 E-score
46 | CCGCCCCG | 0.16 E-score
47 | GCCGGTGA | 0.105 E-score
48 | CACGCCGC | -0.356 E-score
49 | AGTATGGA | -0.0313 E-score
50 | ACTAGATA | 0.304 E-score

Row | Sequence | binding signal
51 | CCCGAGCC | 0.0921 E-score
52 | CCCAACGA | -0.119 E-score
53 | GGATGAAC | 9.5e-05 E-score
54 | CGGTTAGA | 0.0447 E-score
55 | CATGGAAA | -0.264 E-score
56 | ATGGTTGA | -0.0669 E-score
57 | CCACGACG | -0.13 E-score
58 | AGTAAGCA | -0.222 E-score
59 | CTAAATGA | 0.0973 E-score
60 | GGGAAACC | 0.162 E-score
61 | AGGTAACG | -0.202 E-score
62 | AAGATCCA | 0.209 E-score
63 | ATTATTCC | 0.0344 E-score
64 | AATCCACC | 0.126 E-score
65 | GTAAACGA | 0.125 E-score
66 | GACCAAGC | -0.217 E-score
67 | CGTGATCA | 0.181 E-score
68 | ATGCTTTA | 0.00997 E-score
69 | ATGGTCAC | 0.0109 E-score
70 | AGACATTG | 0.0559 E-score
71 | GGGCCCCA | -0.222 E-score
72 | ATACCCCG | 0.47 E-score
73 | GCAAATAA | -0.134 E-score
74 | CGGGTTAA | 0.203 E-score
75 | CAGATGGA | 0.127 E-score

Row | Sequence | binding signal
76 | ATAGAATA | 0.162 E-score
77 | CTACACGA | 0.136 E-score
78 | CCAGGCCG | -0.139 E-score
79 | AGGGCTCG | -0.00225 E-score
80 | AGGTGGCG | -0.134 E-score
81 | CGGCTTGC | -0.165 E-score
82 | AGATTTCC | -0.128 E-score
83 | ATAAACCC | 0.188 E-score
84 | CAATGACC | -0.103 E-score
85 | ATCCCTGA | 0.272 E-score
86 | AAAACTGT | -0.138 E-score
87 | AACAGCTG | -0.223 E-score
88 | GCCCGTGA | 0.00892 E-score
89 | AATCTCAG | 0.00664 E-score
90 | GAATAGCA | -0.0444 E-score
91 | ATCGGGTA | 0.337 E-score
92 | AAGCGCAT | 0.0081 E-score
93 | CACCTCCA | 0.0923 E-score
94 | ACCGGGTA | 0.274 E-score
95 | CTAGGAAC | -0.285 E-score
96 | CTAACTGC | -0.258 E-score
97 | ACGGCGGC | -0.277 E-score
98 | CGCACATC | -0.121 E-score
99 | GACACCTC | 0.397 E-score
100 | CGAGTTAA | -0.0559 E-score

Row | Sequence | binding signal
101 | TAGAGGCA | -0.105 E-score
102 | CATTTCCC | -0.141 E-score
103 | CCGAGGTA | 0.0983 E-score
104 | AAATCGGT | -0.169 E-score
105 | GAGTTAGC | -0.131 E-score
106 | AGAGGGAA | -0.185 E-score
107 | ACGCATCC | 0.0357 E-score
108 | CGGTACCG | -0.182 E-score
109 | AGAATGCA | -0.0977 E-score
110 | ATCTTCGA | 0.193 E-score
111 | GGGCACCC | 0.000475 E-score
112 | AAAATGGC | -0.176 E-score
113 | GCCGGACA | -0.122 E-score
114 | GTAAGTCA | -0.201 E-score
115 | TAGACTCA | -0.0831 E-score
116 | AGGTAGAG | -0.124 E-score
117 | AACCTACC | -0.047 E-score
118 | ATTAACTG | 0.0705 E-score
119 | AGCTTCTG | -0.0355 E-score
120 | GCTAGTTA | -0.124 E-score
121 | CCCCAAAC | -0.0898 E-score
122 | ATTGGGCA | -0.0995 E-score
123 | CTCACATC | 0.0249 E-score
124 | CCGATGAA | 0.014 E-score
125 | GGCTAGCC | 0.0579 E-score

Row | Sequence | binding signal
126 | AAACAACA | -0.113 E-score
127 | AGGGCCGA | -0.00617 E-score
128 | AATTTGCA | -0.0823 E-score
129 | ACGCACTG | -0.0973 E-score
130 | CCAGATAG | 0.14 E-score
131 | GGCTCCAC | -0.144 E-score
132 | TAGGCAAA | -0.174 E-score
133 | AGTCTATC | 0.00881 E-score
134 | AGCTAGCT | 0.0399 E-score
135 | CGTAGCTC | 0.0539 E-score
136 | CGCAAAAA | 0.0219 E-score
137 | TGTTCCAA | -0.135 E-score
138 | CGTAAAGA | -0.221 E-score
139 | CGCCTTTA | 0.136 E-score
140 | AACTGTCG | -0.0942 E-score
141 | AAATTGGT | -0.108 E-score
142 | GCTCACCC | 0.0863 E-score
143 | CATTGACA | -0.059 E-score
144 | ATTAAGCA | -0.0802 E-score
145 | GGCAATTA | -0.00217 E-score
146 | CACAGAGG | -0.0106 E-score
147 | CAGCTTTA | -0.109 E-score
148 | ACGTGCTG | 0.0415 E-score
149 | TACGAGCA | -0.0092 E-score
150 | AAGCCCCA | -0.055 E-score

Row | Sequence | binding signal
151 | ACGTTCAG | -0.237 E-score
152 | GACCGCTA | -0.0055 E-score
153 | CTACGGCA | -0.246 E-score
154 | CATGAAGA | 0.0648 E-score
155 | ATTATCCG | 0.351 E-score
156 | AAAAGGTA | -0.04 E-score
157 | ACTGGGAG | 0.036 E-score
158 | ATTGCAAT | 0.0324 E-score
159 | CCCGGTAA | 0.0147 E-score
160 | CGTAATCC | 0.276 E-score
161 | GGCATGCA | -0.153 E-score
162 | AAAGACTT | -0.309 E-score
163 | ACTAACTC | -0.225 E-score
164 | GTGCGCTA | -0.172 E-score
165 | AAAAAGAA | -0.163 E-score
166 | CAAAAACC | -0.000125 E-score
167 | GATCAGAC | 0.249 E-score
168 | CCTGGGCC | -0.106 E-score
169 | GACAGGAC | -0.368 E-score
170 | ATTAGAAA | -0.12 E-score
171 | CGCGAAAG | -0.0786 E-score
172 | AAGGCGTG | -0.09 E-score
173 | CTATTTAC | -0.0352 E-score
174 | CGGAAGAC | -0.0635 E-score
175 | CGTAGTTC | -0.325 E-score

Row | Sequence | binding signal
176 | CGGTTCAA | -0.0401 E-score
177 | ACCAGGCG | -0.0427 E-score
178 | CACCTAAG | 0.17 E-score
179 | AGCTACAA | -0.139 E-score
180 | CAGCCGCA | -0.0858 E-score
181 | GGGGATAC | 0.44 E-score
182 | AACAATGG | -0.166 E-score
183 | CTTTATGA | -0.0868 E-score
184 | AGTCGAGA | -0.0434 E-score
185 | CAGTTACA | -0.0345 E-score
186 | ACGGTCAC | -0.25 E-score
187 | ACGTGTCG | -0.11 E-score
188 | GCACTACC | 0.0323 E-score
189 | GCACTTGA | -0.0358 E-score
190 | AATACTTA | 0.0609 E-score
191 | ACGGTAAA | -0.217 E-score
192 | ATAACTGA | 0.0924 E-score
193 | CACTCGGA | 0.194 E-score
194 | GTCCGAGA | 0.0174 E-score
195 | AAGTAATT | -0.132 E-score
196 | CGCCTAAG | -0.245 E-score
197 | CCTTTCTA | -0.0641 E-score
198 | ATGCCAGA | 0.0745 E-score
199 | ACCGTTTC | -0.109 E-score
200 | CAAAGCTA | -0.0713 E-score

Row | Sequence | binding signal
201 | CGATGAGC | 0.0262 E-score
202 | CCATCCAA | 0.0914 E-score
203 | ATCCGTGG | 0.295 E-score
204 | ATCGTACG | 0.132 E-score
205 | ACCCTTCT | 0.224 E-score
206 | TTGCCCAA | -0.0948 E-score
207 | GTCGTCCA | -0.136 E-score
208 | GTAATCTA | 0.15 E-score
209 | GAAAAAGA | -0.173 E-score
210 | AGATTGCG | -0.0727 E-score
211 | CGTTAATA | 0.0475 E-score
212 | GGTGTAAA | 0.198 E-score
213 | GACTGTCC | -0.25 E-score
214 | ATGGGCAA | -0.0761 E-score
215 | GCCCATCA | -0.142 E-score
216 | GCCTACGC | 0.0164 E-score
217 | CATTTAGA | -0.0313 E-score
218 | GACGTAGC | 0.0367 E-score
219 | TCTAGGAA | -0.107 E-score
